Measured values reported in PubChem BioAssay AID2675 (National Center for Advancing Translational Sciences (NCATS), 2010).
The campaign covered roughly 280,000 compounds. About 100 (0.036%) were called active. The inconclusive results got no clear call from the source; some entries with a clear call stand among them for comparison. Calls follow the shape of the dose curve; as a rule, active = well fitted inhibition curve with a large enough effect in the signal ratio, with a control signal flat (not every such curve was filed as active); inconclusive = small, poorly fitted or top-dose-only effect, or effect the other way, or a change in a side signal; inactive = no such curve, though single readings can be large or run the other way; the % refers to the signal ratio. A potency beside an inconclusive call is a rough fit, not a confirmed value. “Side channel” marks fits to a control or component signal instead of the main read-out.

Target: Muscleblind-like protein 1 (Homo sapiens) (UniProt Q9NR56)
Sequence of UniProt Q9NR56 (Q9NR56 whole entry, looked up): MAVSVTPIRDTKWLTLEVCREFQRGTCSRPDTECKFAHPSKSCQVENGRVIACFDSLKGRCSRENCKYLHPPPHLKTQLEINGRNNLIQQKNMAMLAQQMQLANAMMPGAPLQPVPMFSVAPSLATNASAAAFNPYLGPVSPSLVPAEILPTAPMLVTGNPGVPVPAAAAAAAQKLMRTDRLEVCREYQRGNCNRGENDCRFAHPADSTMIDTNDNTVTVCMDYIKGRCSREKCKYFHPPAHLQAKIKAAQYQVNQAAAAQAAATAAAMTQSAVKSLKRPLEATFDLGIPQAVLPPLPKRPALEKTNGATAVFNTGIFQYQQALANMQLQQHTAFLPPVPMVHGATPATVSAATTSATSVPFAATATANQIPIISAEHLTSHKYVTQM
Test: qHTS Assay for Inhibitors of MBNL1-poly(CUG) RNA binding
Conditions: TR-FRET MBNL1-His/biotin-(CUG)12 binding, 665/545 ratio; activity change, negative = inhibition: at 57.5 µM (top of the series)
Summary of the method: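 His-tagged MBNL1 binding to biotinylated (CUG)12 RNA was measured by TR-FRET using terbium anti-His antibody (0.055 ng/ul final) and streptavidin-XL665 (5 nM final). Compounds were titrated 92 nM to 58 uM; 60 min at room temperature.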
% is scaled to controls: 0 for no effect and ±100 for the full control effect; potency is read from the fitted curve at half-maximal effect; tags tell the direction and shape of the fitted curve or compound fluorescence and quenching.

| Structure (SMILES) | Potency | activity change, negative = inhibition |
| --- | --- | --- |
| Cn1c2ccccc2c(=O)c2c(=O)n(C3CCCCCC3)c(C3CCCCC3)nc21 | inconclusive: 3.55 µM [fluorescent, side channel, partial curve] | – |
| CCCCN(CC)C(=O)c1cc2cc3ccc(OC)cc3nc2o1 | inconclusive: 14.1 µM [quencher, side channel, partial curve] | – |
| O=C1c2ccccc2NC(c2cccc([N+](=O)[O-])c2)N1O (stereo unspecified) | inconclusive: 11.2 µM [quencher, side channel, partial curve] | – |
| CCOC(=O)c1cnc2ccc(C(=O)OC)cc2c1Nc1cccc(C(=O)O)c1 | – | inactive: 0.678% |
| CCCS(=O)(=O)c1c(S(=O)(=O)CCC)c2c3ccccc3ccn2c1C(=O)OC | inconclusive: 50.1 µM [inhibitor, single point] | – |
| O=C(COC(=O)C1CC(=O)N(Cc2ccco2)C1)c1ccc(OC(=O)c2ccco2)cc1 (stereo unspecified) | inconclusive: 1.12 µM [fluorescent, side channel, single point] | – |
| O=C(C1=NN[C@@H]2C(=O)N(c3cccc(C(F)(F)F)c3)C(=O)[C@H]12)C(c1ccccc1)c1ccccc1 | inconclusive: 0.1 µM [fluorescent, side channel, full curve, poor fit] | – |
| COc1ccc2c(c1)c1nc3ccccc3nc1n2CC(=O)OC(C)C | – | inactive: 0.366% |
| CC1CCN(C(=O)c2ccc(N3C(=O)c4ccccc4C3=O)cc2)CC1 | inconclusive: 10 µM [quencher, side channel, partial curve] | – |
| Cc1ccc(OCC(=O)N2N=C(c3cccnc3)CC2(O)C(F)(F)F)cc1C (stereo unspecified) | inconclusive: 0.112 µM [fluorescent, side channel, full curve] | – |
| Clc1ccccc1/C=C/C=N/Nc1nc(N2CCOCC2)nc(N2CCOCC2)n1 | inconclusive: 31.6 µM [quencher, side channel, single point] | – |
| CCOC(=O)c1c(N)c2cc([N+](=O)[O-])cnc2n1C | inconclusive: 2.82 µM [quencher, side channel, partial curve] | – |
| CN(C)c1ccc2nsnc2c1[N+](=O)[O-] | inconclusive: 3.55 µM [quencher, full curve] | – |
| N#Cc1c2n(c3c(=O)n(CC(=O)c4ccc(Br)cc4)cnc13)CCCC2 | – | inactive: -2.27% |
| CSc1nnc(N2C(=O)C(O)=C(C(=O)c3ccco3)C2c2ccccc2)s1 (stereo unspecified) | inconclusive: 31.6 µM [quencher, side channel, single point] | – |
| O=C(CCCOc1ccccc1)Nc1ccc(Cl)cn1 | – | inactive: -3% |
| O=C(NCC(c1cccs1)N1CCOCC1)c1ccc(Cl)c([N+](=O)[O-])c1 (stereo unspecified) | inconclusive: 8.91 µM [activator, single point] | – |
| CN1C(=O)SC(Nc2cccc3ccccc23)C1=O (stereo unspecified) | inconclusive: 39.8 µM [quencher, side channel, partial curve, poor fit] | – |
| CCc1c(C)nc2ncnn2c1Nc1ccc(C#N)c(Cl)c1 | inconclusive: 100 µM [inhibitor, single point] | – |
| COc1cccc(NC(=O)CN2C(=O)CSc3nc(C)cc(C)c32)c1 | – | inactive: 5.54% |
| O=C(CCS(=O)(=O)c1ccccc1)Nc1ncc([N+](=O)[O-])s1 | inconclusive: 11.2 µM [quencher, partial curve] | – |

| Structure (SMILES) | Potency | activity change, negative = inhibition |
| --- | --- | --- |
| Cn1c(SCc2ccc([N+](=O)[O-])cc2)nnc1-c1cccnc1 | inconclusive: 17.8 µM [quencher, side channel, single point] | – |
| O=C(COC(=O)c1c2ccccc2cc2ccccc12)NCC(F)(F)F | inconclusive: 20 µM [quencher, side channel, single point] | – |
| Cc1ccc2cc(N)ccc2n1 | inconclusive: 22.4 µM [quencher, side channel, single point] | – |
| Cc1ccc(SCCC(=O)Nc2ccc(OCc3ccccc3)cc2)cc1 | inconclusive: 5.62 µM [fluorescent, side channel, full curve, poor fit] | – |
| CSC(=CC(=O)c1ccc(F)cc1)SC | inconclusive: 44.7 µM [quencher, side channel, partial curve, poor fit] | – |
| O=C(O)c1ccc(Cl)c(S(=O)(=O)Nc2ccc3[nH]c(=O)[nH]c3c2)c1 | inconclusive: 17.8 µM [quencher, side channel, partial curve] | – |
| O=C(C[n+]1ccc2ccccc2c1)c1cccc2ccccc12 | inconclusive: 20 µM [quencher, side channel, partial curve] | – |
| CCCCc1nc2n[nH]c(N)c2c2c1CCCC2 | – | inactive: 0.38% |
| O=C1NC(=S)N(c2cccc(Cl)c2)C12CCCCC2 | inconclusive: 39.8 µM [quencher, side channel, single point] | – |
| O=C1C2C3C=CC(C4CC34)C2C(=O)N1/N=C/c1ccc(-c2cccc([N+](=O)[O-])c2)o1 (stereo unspecified) | inconclusive: 39.8 µM [quencher, side channel, partial curve] | – |
| Cc1cccc(NC(c2ccc(O)cc2)c2ccc3ccc(C)nc3c2O)n1 (stereo unspecified) | – | inactive: 21.7% |
| O=C(NC(=S)N1CCN(c2ccc([N+](=O)[O-])cc2Cl)CC1)c1ccco1 | inconclusive: 2.51 µM [quencher, side channel, partial curve] | – |
| CC(=O)c1ccc(NC(=O)c2ccc(-n3cncn3)c([N+](=O)[O-])c2)cc1 | inconclusive: 11.2 µM [quencher, side channel, partial curve] | – |
| O=C(c1ccc(F)cc1)N1CCN(c2ccc([N+](=O)[O-])cc2-n2cccc2)CC1 | inconclusive: 25.1 µM [quencher, side channel, partial curve] | – |
| O=C(COC(=O)CCC(=O)c1cccs1)Nc1ccccc1[N+](=O)[O-] | inconclusive: 31.6 µM [quencher, side channel, single point] | – |
| CCCCC(=O)OCCNC(=O)c1cc2ccccc2oc1=O | inconclusive: 0.794 µM [quencher, side channel, full curve, poor fit] | – |
| COC(=O)C(C)n1nnc2sc(-c3ccccc3)cc2c1=O (stereo unspecified) | inconclusive: 8.91 µM [quencher, side channel, partial curve] | – |
| N#C/C(=C\c1cccc([N+](=O)[O-])c1)C(=O)NCc1ccc(Cl)cc1 | – | inactive: 24.5% |
| CCN1CCN(C(C(=O)NC2CCCCC2)c2ccc(Cl)cc2)CC1 (stereo unspecified) | – | inactive: -0.198% |
| Cc1nc2cc(C(=O)OCC(=O)NC(C)C(C)C)ccc2n1-c1ccccc1 (stereo unspecified) | – | inactive: -8.05% |
| COc1cc(OC)c(OC)cc1/C=N/NC(=S)NCCN1CCOCC1 | – | inactive: 5.07% |

| Structure (SMILES) | Potency | activity change, negative = inhibition |
| --- | --- | --- |
| CC(C)C1OC2c3cccc4cccc(c34)C2N1c1ccccc1 (stereo unspecified) | inconclusive: 39.8 µM [quencher, single point] | – |
| O=C(COc1cc([N+](=O)[O-])cc2cccnc12)NCCC1=CCCCC1 | inconclusive: 12.6 µM [quencher, side channel, partial curve] | – |
| COC(=O)c1cc(OC)c(OC)cc1NC(=O)CN1CCOCC1 | – | inactive: 1.6% |
| CCC(CC)c1nnc(NC(=O)C2CC(=O)N(c3ccc4c(c3)OCCO4)C2)s1 (stereo unspecified) | inconclusive: 0.1 µM [fluorescent, side channel, full curve] | – |
| Cc1ccc(OC(=O)c2cccc(C(=O)Oc3ccc(C)cn3)n2)nc1 | inconclusive: 28.2 µM [quencher, side channel, single point] | – |
| O=C(CN1C(=O)/C(=C/c2ccccc2)SC1=S)Nc1cccnc1 | inconclusive: 15.8 µM [quencher, side channel, partial curve] | – |
| CC(C)CNc1nc(=S)nc(N(C)C)[nH]1 | – | inactive: -8.22% |
| COCCN(Cc1cccs1)S(=O)(=O)c1ccc(-c2ccc(=O)[nH]n2)s1 | inconclusive: 17.8 µM [quencher, side channel, partial curve] | – |
| O=C(CSc1nnc(CCCN2C(=O)c3cccc4cccc(c34)C2=O)n1-c1ccccc1)NCCCO | inconclusive: 11.2 µM [quencher, side channel, partial curve] | – |
| Cc1onc(-c2ccccc2)c1C(=O)Nc1cccnc1 | inconclusive: 100 µM [inhibitor, single point] | – |
| O=C(Nc1ccccc1)C1CC(=O)N(c2ccc3c4c(cccc24)CC3)C1 (stereo unspecified) | inconclusive: 28.2 µM [quencher, side channel, partial curve] | – |
| Cc1ccc(C=Nc2cccnc2N)cc1 | inconclusive: 7.94 µM [quencher, side channel, partial curve] | – |
| O=C(NCc1cccnc1)/C(=C\c1ccc(-c2cccc(Cl)c2)o1)S(=O)(=O)c1ccccc1 | – | inactive: -2.57% |
| CC1Oc2ccccc2C=C1/C=N/NC(=O)c1ccncc1 (stereo unspecified) | inconclusive: 15.8 µM [quencher, side channel, partial curve] | – |
| CCOC(=O)c1nnc(-c2ccccc2)nc1NC | inconclusive: 28.2 µM [quencher, side channel, single point] | – |
| Cc1c(Cl)c([N+](=O)[O-])nn1Cc1ccc(C(=O)N/N=C\c2ccccn2)o1 | inconclusive: 3.55 µM [quencher, full curve] | – |
| CC1CCCN(C(=O)c2sc3cc([N+](=O)[O-])ccc3c2Cl)C1 (stereo unspecified) | inconclusive: 25.1 µM [quencher, side channel, partial curve] | – |
| O=C(Nc1ccccc1N1CCN(c2ccc(F)cc2)CC1)C12CC3CC(CC(C3)C1)C2 | – | inactive: -4.66% |
| O=[N+]([O-])c1ccc(N2CCN(C(=S)Nc3cccc(F)c3)CC2)cc1 | inconclusive: 17.8 µM [quencher, side channel, partial curve] | – |
